{"source": "the supplement of paper PMC8728848", "experiment_in_all_cases": "glycan array binding signal (z-score within array); higher = stronger binding", "details_in_all_cases": "glycan notation: IUPAC condensed, linker removed", "key": {"Glc(a1-6)Glc(a1-6)Glc": {"molecular_target": "Glc(a1-6)Glc(a1-6)Glc", "procedure,_shortened": "(§1)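 Columns mapping to the same glycan were averaged after glycan names were converted to IUPAC-condensed notation. The data come from 3228 arrays in the Consortium for Functional Glycomics database, limited to those with an available protein sequence. Binding is reported as a within-array Z-score averaged across arrays of one protein sequence and across linkers.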"}, "Glc(b1-4)Glc": {"molecular_target": "Glc(b1-4)Glc", "procedure,_shortened": "as §1"}, "Glc(b1-6)Glc": {"molecular_target": "Glc(b1-6)Glc", "procedure,_shortened": "as §1"}, "GlcA(b1-3)Gal": {"molecular_target": "GlcA(b1-3)Gal", "procedure,_shortened": "as §1"}, "GlcA(b1-3)GlcNAc": {"molecular_target": "GlcA(b1-3)GlcNAc", "procedure,_shortened": "as §1"}, "GlcA(b1-6)Gal": {"molecular_target": "GlcA(b1-6)Gal", "procedure,_shortened": "as §1"}, "[1]": {"molecular_target": "GlcNAc(a1-3)Gal(b1-4)GlcNAc", "procedure,_shortened": "as §1"}, "[2]": {"molecular_target": "GlcNAc(a1-4)Gal(b1-3)GlcNAc", "procedure,_shortened": "as §1"}, "[3]": {"molecular_target": "GlcNAc(a1-4)Gal(b1-4)GalNAc", "procedure,_shortened": "as §1"}, "[4]": {"molecular_target": "GlcNAc(a1-4)Gal(b1-4)GlcNAc", "procedure,_shortened": "as §1"}, "[5]": {"molecular_target": "GlcNAc(a1-4)Gal(b1-4)GlcNAc(b1-3)Gal(b1-4)Glc", "procedure,_shortened": "as §1"}, "[6]": {"molecular_target": "GlcNAc(a1-4)Gal(b1-4)GlcNAc(b1-3)Gal(b1-4)GlcNAc", "procedure,_shortened": "as §1"}, "[7]": {"molecular_target": "GlcNAc(a1-4)Gal(b1-4)GlcNAc(b1-3)Gal(b1-4)GlcNAc(b1-3)Gal(b1-4)GlcNAc", "procedure,_shortened": "as §1"}, "[8]": {"molecular_target": "GlcNAc(a1-4)Gal(b1-4)GlcNAc(b1-3)Gal(b1-4)[Fuc(a1-3)]GlcNAc(b1-3)Gal(b1-4)[Fuc(a1-3)]GlcNAc", "procedure,_shortened": "as §1"}, "[9]": {"molecular_target": "GlcNAc(a1-6)Gal(b1-4)GlcNAc", "procedure,_shortened": "as §1"}, "[10]": {"molecular_target": "GlcNAc(b1-2)Gal(b1-3)GalNAc", "procedure,_shortened": "as §1"}, "[11]": {"molecular_target": "GlcNAc(b1-2)Man(a1-3)[GlcNAc(b1-2)Man(a1-6)]Man(b1-4)GlcNAc(b1-4)GlcNAc", "procedure,_shortened": "as §1"}, "[12]": {"molecular_target": "GlcNAc(b1-2)Man(a1-3)[GlcNAc(b1-2)Man(a1-6)]Man(b1-4)GlcNAc(b1-4)[Fuc(a1-6)]GlcNAc", "procedure,_shortened": "as §1"}, "GlcNAc(b1-3)Gal": {"molecular_target": "GlcNAc(b1-3)Gal", "procedure,_shortened": "as §1"}, "[13]": {"molecular_target": "GlcNAc(b1-3)Gal(b1-3)GalNAc", "procedure,_shortened": "as §1"}, "GlcNAc(b1-3)Gal(b1-4)Glc": {"molecular_target": "GlcNAc(b1-3)Gal(b1-4)Glc", "procedure,_shortened": "as §1"}, "[14]": {"molecular_target": "GlcNAc(b1-3)Gal(b1-4)GlcNAc", "procedure,_shortened": "as §1"}, "[15]": {"molecular_target": "GlcNAc(b1-3)Gal(b1-4)GlcNAc(b1-3)Gal(b1-4)GlcNAc", "procedure,_shortened": "as §1"}, "GlcNAc(b1-3)GalNAc": {"molecular_target": "GlcNAc(b1-3)GalNAc", "procedure,_shortened": "as §1"}, "GlcNAc(b1-3)Man": {"molecular_target": "GlcNAc(b1-3)Man", "procedure,_shortened": "as §1"}, "[16]": {"molecular_target": "GlcNAc(b1-3)[GlcNAc(b1-4)][GlcNAc(b1-6)]GlcNAc", "procedure,_shortened": "as §1"}, "[17]": {"molecular_target": "GlcNAc(b1-3)[GlcNAc(b1-6)]Gal(b1-4)GlcNAc", "procedure,_shortened": "as §1"}, "[18]": {"molecular_target": "GlcNAc(b1-3)[GlcNAc(b1-6)]GalNAc", "procedure,_shortened": "as §1"}, "[19]": {"molecular_target": "GlcNAc(b1-4)Gal(b1-4)GlcNAc", "procedure,_shortened": "as §1"}, "GlcNAc(b1-4)GlcNAc": {"molecular_target": "GlcNAc(b1-4)GlcNAc", "procedure,_shortened": "as §1"}}, "note": "This is one part of the list.", "data": [{"binder": "DETC sTCR (Mus musculus) (protein) LDVYLEPVAKTFTVVAGDPASFYCTVTGGDMKNYHMSWYKKNGTNALFLVYKLNSNSTDGGKSNLKGKINISKNQFILDIQKATMKDAGTYYCGSDIGGSSWDTRQMFFGTGIELFVEPKSQPPAKPSVFIMKNGTNVACLVKDFYPKEVTISLRSSKKIVEFDPAIVISPSGKYSAVKLGQYGDSNSVTCSVQHNSETVHSTDFEPYANSFNNEKLPEPENDTQISEPCSSADLVPRGSTTAPSAQLKKKLQALKKKNAQLKWKLQALKKKLAQHHHHHHDSWISQDQLSFTRRPNKTVHISCKLSGVPLHNTIVHWYQLKEGEPLRRIFYGSVKTYKQDKSHSRLEIDEKDDGTFYLIINNVVTSDEATYYCACWDSSGFHKVFAEGTKLIVIPSDKRLDADISPKPTIFLPSVAETNLHKTGTYLCLLEKFFPDVIRVYWKEKDGNTILDSQEGDTLKTNDTYMKFSWLTVPERAMGKEHRCIVKHENNKGGADQEIFFPSIKKVAVSTKPTTCSSADLVPRGSTTAPSAQLEKELQALEKENAQLEWELQALEKELAQLNDIFEAQKIEW", "values": [{"measurement": "glycan array binding signal (z-score)", "setting": "Glc(a1-6)Glc(a1-6)Glc", "result": -0.174}, {"measurement": "glycan array binding signal (z-score)", "setting": "Glc(b1-4)Glc", "result": 1.68}, {"measurement": "glycan array binding signal (z-score)", "setting": "Glc(b1-6)Glc", "result": -0.344}, {"measurement": "glycan array binding signal (z-score)", "setting": "GlcA(b1-3)Gal", "result": -0.521}, {"measurement": "glycan array binding signal (z-score)", "setting": "GlcA(b1-3)GlcNAc", "result": 0.148}, {"measurement": "glycan array binding signal (z-score)", "setting": "GlcA(b1-6)Gal", "result": -0.468}, {"measurement": "glycan array binding signal (z-score)", "setting": "[1]", "result": -0.42}, {"measurement": "glycan array binding signal (z-score)", "setting": "[2]", "result": -0.245}, {"measurement": "glycan array binding signal (z-score)", "setting": "[3]", "result": 3.96}, {"measurement": "glycan array binding signal (z-score)", "setting": "[4]", "result": 0.237}, {"measurement": "glycan array binding signal (z-score)", "setting": "[5]", "result": -0.469}, {"measurement": "glycan array binding signal (z-score)", "setting": "[6]", "result": 0.076}, {"measurement": "glycan array binding signal (z-score)", "setting": "[7]", "result": -0.493}, {"measurement": "glycan array binding signal (z-score)", "setting": "[8]", "result": 5.91}, {"measurement": "glycan array binding signal (z-score)", "setting": "[9]", "result": -0.719}, {"measurement": "glycan array binding signal (z-score)", "setting": "[10]", "result": 0.055}, {"measurement": "glycan array binding signal (z-score)", "setting": "[11]", "result": -0.435}, {"measurement": "glycan array binding signal (z-score)", "setting": "[12]", "result": 0.449}, {"measurement": "glycan array binding signal (z-score)", "setting": "GlcNAc(b1-3)Gal", "result": 1.33}, {"measurement": "glycan array binding signal (z-score)", "setting": "[13]", "result": -0.306}, {"measurement": "glycan array binding signal (z-score)", "setting": "GlcNAc(b1-3)Gal(b1-4)Glc", "result": -0.656}, {"measurement": "glycan array binding signal (z-score)", "setting": "[14]", "result": -0.215}, {"measurement": "glycan array binding signal (z-score)", "setting": "[15]", "result": -0.626}, {"measurement": "glycan array binding signal (z-score)", "setting": "GlcNAc(b1-3)GalNAc", "result": 1.69}, {"measurement": "glycan array binding signal (z-score)", "setting": "GlcNAc(b1-3)Man", "result": -0.035}, {"measurement": "glycan array binding signal (z-score)", "setting": "[16]", "result": -0.407}, {"measurement": "glycan array binding signal (z-score)", "setting": "[17]", "result": -0.67}, {"measurement": "glycan array binding signal (z-score)", "setting": "[18]", "result": -0.395}, {"measurement": "glycan array binding signal (z-score)", "setting": "[19]", "result": -0.766}, {"measurement": "glycan array binding signal (z-score)", "setting": "GlcNAc(b1-4)GlcNAc", "result": -0.517}]}]}
